B1: GPRC5D-Mab08scFv-Fc (scFv)
scFv: QVQLQQSGAELARPGASVKLSCKTSGYIFTNFGITWVKQRTGQGLEWIGENYPRRINTYYNEKFKGKATLTADKSSNTAYLELRSLTSEDSAVYFCSRKDIFGLSYALDYWGQGTSVTVSSGGGGSGGGGSGGGGSDIVMTQSQKFMSTSVGDRVSVTCKASQNVGTNVAWYQHKPGQSPKALIYSASYQYSGVPDRFTGSGSGTDFTLTISNVQSEDLAEYICQQYKNYPYTFGGGTKLEIK[human IgG1 Fc with C220S (EU numbers) not shown]
notes: Human-mouse chimeric scFv-Fc; also called GPRC5D-mab08 chimeric antibody
B2: GPRC5D-Mab01scFv-Fc (scFv)
scFv: QVQLKESGPGLVAPSQSLSITCTVSGFSLTNYGVSWVRQPPGKGLEWLGVIWGDGSTNYHSALISRLSIRKDNSKSQVFLKLNSLQTDDTATYYCAKPASYYGRRTYAMDFWGHGTSVTVSSGGGGSGGGGSGGGGSQIVLSQSPAILSASPGEKVTMTCRASSSVSYMHWYQQKPGSSPKPWIYATSHLASGVPARFSGSGSGTSYSLTISRVEAEDAATYYCQQWSSNPPMTFGGGTKLEIK[human IgG1 Fc with C220S (EU numbers) not shown]
notes: Human-mouse chimeric scFv-Fc; also called GPRC5D-mab01 chimeric antibody
B3: GPRC5D-Mab04scFv-Fc (scFv)
scFv: EVQLVESGGGLVKPGGSLKLSCAASRFTFSRYAMSWVRQTPEKRLEWVATISDGGSYTYYPDNVKGRFTISRDNAKNNLYLQMSHLKSEDTAIYYCARDRYYYGKGGYFDVWGTGTTVTVSSGGGGSGGGGSGGGGSDIQMTQSPASLSVSVGETVTITCRASENIYRNLAWYQQKQGKSPQLLVYAATNLADGVPSRFSGSGSGTQYSLKINSLQSEDFGSYYCQHFWGTPRTFGGGTKLEIK[human IgG1 Fc with C220S (EU numbers) not shown]
notes: Human-mouse chimeric scFv-Fc; also called GPRC5D-mab04 chimeric antibody
B4: GPRC5D-Mab03scFv-Fc (scFv)
scFv: QAYLQQSGAELVRPGASVKMSCKASGYTFTSYNMNWVKQTPRQGLEWIGAIYPGNGDTSYNQKFKGKATLTVDKSSSTAYMQLSSLTSEDSAVYFCARVRLRYAMDYWGQGTSVTVSSGGGGSGGGGSGGGGSDIVMTQSQKFMSTTVGDRVTITCKASQNVGTAVAWYQQKPGQSPKLLISSASNRYTGVPERFTGSGSGTDFTLTIRNMQSEDLADYFCQQYSSYPWTFGGGTELEIK[human IgG1 Fc with C220S (EU numbers) not shown]
notes: Human-mouse chimeric scFv-Fc; also called GPRC5D-mab03 chimeric antibody
B5: GPRC5D-Mab05scFv-Fc (scFv)
scFv: QVQLQQSGAELARPGASVMLSCKASGYTFTSYGISWVKQRTGQGLEWIGEIYPRSGNTYYNEKFKGKATLTADKSSSTAYMELRSLTSEDSAVYFCARGRAYGRNYPMDYWGQGTSVTVSSGGGGSGGGGSGGGGSDILLTQSPAILSVSVGERVSFSCRASQSIGTSIHWYQQRTNGSPRLLIKYASESISGIPSRFSGSGSGTDFTLSINSVESEDIADYYCQQSNSWPYTFGGGTKLEIK[human IgG1 Fc with C220S (EU numbers) not shown]
notes: Human-mouse chimeric scFv-Fc; also called GPRC5D-mab05 chimeric antibody

biological target: T1, human GPRC5B (human, UniProt Q9NZH0 29-403); test: FACS, CHOK1-hGPRC5B cells
T1 construct: Printed as Uniprot: Q9NZH0-1; also called hGPRC5B; on CHOK1-hGPRC5B cells
T1 sequence: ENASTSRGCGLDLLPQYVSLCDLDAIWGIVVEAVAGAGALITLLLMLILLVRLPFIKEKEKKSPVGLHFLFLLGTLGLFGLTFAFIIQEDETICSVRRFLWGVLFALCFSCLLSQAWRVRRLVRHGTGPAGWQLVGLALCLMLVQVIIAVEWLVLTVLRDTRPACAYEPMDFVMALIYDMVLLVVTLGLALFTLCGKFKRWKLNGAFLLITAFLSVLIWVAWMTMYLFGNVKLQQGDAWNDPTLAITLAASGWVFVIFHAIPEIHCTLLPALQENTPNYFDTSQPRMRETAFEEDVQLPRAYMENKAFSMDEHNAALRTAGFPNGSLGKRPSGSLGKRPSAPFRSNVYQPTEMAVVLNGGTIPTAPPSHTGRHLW

Binder	binding result
B1	no binding
B2	no binding
B3	no binding
B4	no binding
B5	no binding

biological target: T2, human GPRC5D (human, UniProt Q9NZD1 1-345); test: FACS, NCI-H929 cells
T2 construct: the cell line is named under assay; also called hGPRC5D; G protein coupled receptor C5 family subtype D
Procedure: (§1) The desired cells were scale-up cultured in a T-75 cell culture flask to the logarithmic growth phase. NCI-H929, MolP-8 and RPMI-8226 cells were collected and washed with PBS buffer 2 times. After counting the cells, the cell pellet was resuspended with [PBS+2% (w/v) BSA] blocking solution to 2×10⁶ cells/ml, and added to a 96-well FACS reaction plate at 50 μl/well, and then the chimeric antibody test sample was added at 50 μl/well, and incubated on ice for 1 h. […] The obtained mixture was centrifuged and washed 3 times with a PBS buffer, and FACS (FACS CantoII, purchased from BD Company) was used for detection and result analysis. Data analysis was performed by software (Flowjo) to obtain the mean fluorescence intensity (MFI) of the cells. Then a software (GraphPad Prism8) was used for analysis, the analysis results are shown in Table 9 and FIGS. 9A-9C, 10A-10C and 11A-11C.

Binder	EC50 [nM]	Maximum mean fluorescence intensity
B1	10.2	5990
B2	2.2	6500
B3	0.72	3690
B4	1.09	4580
B5	1.82	6450

biological target: T3, human GPRC5C (human, UniProt Q9NQ84 24-441); test: FACS, CHOK1-hGPRC5C cells
T3 construct: also called hGPRC5C; on CHOK1-hGPRC5C cells
T3 sequence: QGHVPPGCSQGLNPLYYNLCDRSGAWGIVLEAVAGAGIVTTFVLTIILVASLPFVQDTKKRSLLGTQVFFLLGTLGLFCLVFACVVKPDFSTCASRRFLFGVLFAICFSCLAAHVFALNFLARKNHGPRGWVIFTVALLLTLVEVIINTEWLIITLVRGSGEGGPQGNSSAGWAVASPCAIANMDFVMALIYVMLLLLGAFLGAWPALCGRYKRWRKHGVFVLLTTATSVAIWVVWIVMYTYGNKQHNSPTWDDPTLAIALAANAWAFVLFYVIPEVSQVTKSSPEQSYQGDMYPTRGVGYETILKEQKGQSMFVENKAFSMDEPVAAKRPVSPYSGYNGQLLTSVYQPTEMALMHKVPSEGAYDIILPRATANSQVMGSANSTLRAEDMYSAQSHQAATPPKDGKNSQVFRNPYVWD
Procedure: as §1

Binder	Maximum mean fluorescence intensity
B1	47
B2	80
B3	77
B4	74
B5	108

biological target: T4, hGPRC5D-LVP protein (human, UniProt Q9NZD1 1-345, limits assumed); test: competitive ELISA, competitor Biotin-5F11; antibody at 0.21 nM

Binder	OD450
B1	0.64
B2	1.16
B3	0.96
B4	0.84
B5	1

biological target: T4, hGPRC5D-LVP protein; test: competitive ELISA, competitor Biotin-5F11; antibody at 0 nM
T4 sequence (Q9NZD1 whole entry): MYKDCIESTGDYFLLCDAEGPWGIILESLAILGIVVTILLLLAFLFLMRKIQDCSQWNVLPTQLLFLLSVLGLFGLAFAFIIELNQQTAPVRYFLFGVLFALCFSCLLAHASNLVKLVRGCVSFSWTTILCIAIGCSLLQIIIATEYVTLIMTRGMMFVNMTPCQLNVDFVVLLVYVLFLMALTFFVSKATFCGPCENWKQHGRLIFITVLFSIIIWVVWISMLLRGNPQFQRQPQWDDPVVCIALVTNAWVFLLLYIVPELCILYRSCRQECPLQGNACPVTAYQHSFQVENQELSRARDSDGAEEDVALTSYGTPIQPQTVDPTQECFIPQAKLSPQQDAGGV

Binder	OD450
B1	0.91
B2	1.33
B3	1.25
B4	1.12
B5	1.3

biological target: T4, hGPRC5D-LVP protein; test: competitive ELISA, competitor Biotin-5F11; antibody at 16.67 nM

Binder	OD450
B1	0.1
B2	0.48
B3	0.31
B4	0.2
B5	0.31

biological target: T3, human GPRC5C; test: FACS, CHOK1-hGPRC5C cells; remark: another data set of the same source

Binder	binding result
B1	no binding
B2	no binding
B3	no binding
B4	no binding
B5	no binding

biological target: T2, human GPRC5D; test: FACS, MolP-8 cells
Procedure: as §1

T2 sequence (Q9NZD1 whole entry): as above

Binder	EC50 [nM]	Maximum mean fluorescence intensity
B1	17.2	4210
B2	8.2	4130
B3	9.06	3300
B4	2.65	4090
B5	7.78	5130

biological target: T1, human GPRC5B; test: FACS, CHOK1-hGPRC5B cells; remark: another data set of the same source
Procedure: as §1

Binder	Maximum mean fluorescence intensity
B1	47
B2	81
B3	85
B4	78
B5	106

biological target: T5, human GPRC5A (human, UniProt Q8NFJ5 1-357); test: FACS, CHOK1-hGPRC5A cells
T5 construct: Printed as Uniprot: Q8NFJ5-1; also called hGPRC5A; on CHOK1-hGPRC5A cells
T5 sequence: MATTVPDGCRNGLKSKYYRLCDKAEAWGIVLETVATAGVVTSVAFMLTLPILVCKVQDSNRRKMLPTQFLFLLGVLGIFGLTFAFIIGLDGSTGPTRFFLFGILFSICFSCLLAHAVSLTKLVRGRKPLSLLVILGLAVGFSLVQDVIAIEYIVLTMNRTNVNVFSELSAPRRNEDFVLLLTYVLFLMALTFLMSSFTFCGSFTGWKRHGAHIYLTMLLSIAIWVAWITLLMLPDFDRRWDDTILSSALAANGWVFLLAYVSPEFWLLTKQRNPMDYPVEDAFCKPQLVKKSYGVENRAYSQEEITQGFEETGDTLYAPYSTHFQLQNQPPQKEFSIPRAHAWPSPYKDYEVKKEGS
Procedure: as §1

Binder	Maximum mean fluorescence intensity
B1	72
B2	95
B3	80
B4	74
B5	97

biological target: T4, hGPRC5D-LVP protein; test: competitive ELISA, competitor Biotin-5F11; antibody at 1.85 nM

Binder	OD450
B1	0.45
B2	0.81
B3	0.61
B4	0.42
B5	0.55

biological target: T4, hGPRC5D-LVP protein; test: competitive ELISA, competitor Biotin-5F11; antibody at 5.56 nM

Binder	OD450
B1	0.18
B2	0.62
B3	0.4
B4	0.27
B5	0.41

biological target: T4, hGPRC5D-LVP protein; test: competitive ELISA, competitor Biotin-5F11; antibody at 0.62 nM

Binder	OD450
B1	0.51
B2	0.93
B3	0.76
B4	0.55
B5	0.78

biological target: T4, hGPRC5D-LVP protein; test: competitive ELISA, competitor Biotin-5F11; antibody at 50.00 nM

Binder	OD450
B1	0.06
B2	0.4
B3	0.25
B4	0.14
B5	0.22

biological target: T2, human GPRC5D; test: FACS, RPMI-8226 cells
Procedure: as §1

Binder	EC50 [nM]	Maximum mean fluorescence intensity
B1	8.51	481
B2	6.74	552
B3	13.9	561
B4	3.98	584
B5	17.2	1140

biological target: T5, human GPRC5A; test: FACS, CHOK1-hGPRC5A cells; remark: another data set of the same source

Binder	binding result
B1	no binding
B2	no binding
B3	no binding
B4	no binding
B5	no binding

biological target: T4, hGPRC5D-LVP protein; test: competitive ELISA, competitor Biotin-5F11; antibody at 0.07 nM

Binder	OD450
B1	0.61
B2	1.2
B3	1.1
B4	1.02
B5	1.13

Reference: patent US20250145705A1 (SHANDONG SIMCERE BIOPHARMACEUTICAL, published 2025)
